Test results as given in patent US7517874B2 (priority 2007, dated 2009).
Read-outs that look alike come from different tables or passages of the source.

Target: human CB2 receptor (hCB2) (Homo sapiens, UniProt P34972)
Assay: cell-based
Assay type: cell-based
Settings: for +/− HCB2: agonist or inverse agonist at hCB2
[1] = groups >100 nM-10 μM and >10 μM, cAMP, CHO-K1 hCB2, read-out: EC50 HCB2

Sequence of human CB2 receptor (hCB2) (P34972 whole entry): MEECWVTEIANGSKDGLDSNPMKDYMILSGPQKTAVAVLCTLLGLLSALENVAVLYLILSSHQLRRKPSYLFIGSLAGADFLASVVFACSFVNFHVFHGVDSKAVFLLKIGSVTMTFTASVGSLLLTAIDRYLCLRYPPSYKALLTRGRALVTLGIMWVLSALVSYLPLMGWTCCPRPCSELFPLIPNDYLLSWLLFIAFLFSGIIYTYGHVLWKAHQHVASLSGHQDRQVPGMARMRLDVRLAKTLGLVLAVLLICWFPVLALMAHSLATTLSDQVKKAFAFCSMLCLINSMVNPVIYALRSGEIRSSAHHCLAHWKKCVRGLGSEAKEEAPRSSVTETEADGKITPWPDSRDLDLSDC

Compound	EC50	+/− HCB2	other results
CC(C)CN1CCn2c(-c3ccccc3)nc(C(=O)NCC3CCOCC3)c2C1 [Compound 167, 7-isobutyl-3-phenyl-N-((tetrahydro-2H-pyran-4-yl)methyl)-5,6,7,8-tetrahydroimidazo[1,5-a]pyrazine-1-carboxamide]	> 10000 nM		
CNC(=O)[C@@H](NC(=O)c1nc(C(=O)c2ccccc2)n2c1CN(C)CC2)C(C)(C)C [Compound 289, (S)-3-benzoyl-N-(3,3-dimethyl-1-(methylamino)-1-oxobutan-2-yl)-7-methyl-5,6,7,8-tetrahydroimidazo[1,5-a]pyrazine-1-carboxamide]		+	
CNC(=O)[C@@H](NC(=O)c1nc(-c2ccc(C(=O)N3CCOCC3)cc2)n2c1CN(C)CCC2)C(C)(C)C [Compound 401, (S)-N-(3,3-dimethyl-1-(methylamino)-1-oxobutan-2-yl)-8-methyl-3-(4-(morpholine-4-carbonyl)phenyl)-6,7,8,9-tetrahydro-5H-imidazo[1,5-a][1,4]diazepine-1-carboxamide]	> 10000 nM		
CNC(=O)[C@@H](NC(=O)c1nc(-c2ccccc2)n2c1CN(Cc1cncnc1)CC2)C(C)(C)C [Compound 62, (S)-N-(3,3-dimethyl-1-(methylamino)-1-oxobutan-2-yl)-3-phenyl-7-(pyrimidin-5-ylmethyl)-5,6,7,8-tetrahydroimidazo[1,5-a]pyrazine-1-carboxamide]		−	
COC(=O)N1CCn2c(-c3ccc(Cl)cc3)nc(C(=O)N[C@H](CO)C(C)(C)C)c2C1 [Compound 184, (S)-methyl 3-(4-chlorophenyl)-1-(1-hydroxy-3,3-dimethylbutan-2-ylcarbamoyl)-5,6-dihydroimidazo[1,5-a]pyrazine-7(8H)-carboxylate]	> 10000 nM		
CNC(=O)[C@@H](NC(=O)c1nc(-c2cccc(Cl)c2)n2c1CN(C)CCC2)C(C)(C)C [Compound 433, (S)-3-(3-chlorophenyl)-N-(3,3-dimethyl-1-(methylamino)-1-oxobutan-2-yl)-8-methyl-6,7,8,9-tetrahydro-5H-imidazo[1,5-a][1,4]diazepine-1-carboxamide]		+	
CN1CCCn2c(-c3cc(Cl)c(F)cc3F)nc(C(=O)N[C@H](C(N)=O)C(C)(C)C)c2C1 [Compound 580, (S)-N-(1-amino-3,3-dimethyl-1-oxobutan-2-yl)-3-(5-chloro-2,4-difluorophenyl)-8-methyl-6,7,8,9-tetrahydro-5H-imidazo[1,5-a][1,4]diazepine-1-carboxamide]		+	
CNC(=O)[C@@H](NC(=O)c1nc(-c2ccc(Cl)cc2F)n2c1CN(CC(C)C)CCC2)C(C)(C)C [Compound 322, (S)-3-(4-chloro-2-fluorophenyl)-N-(3,3-dimethyl-1-(methylamino)-1-oxobutan-2-yl)-8-isobutyl-6,7,8,9-tetrahydro-5H-imidazo[1,5-a][1,4]diazepine-1-carboxamide]	> 10000 nM		
C[C@@H](NC(=O)c1nc(-c2ccccc2)n2c1CN(C(=O)OC(C)(C)C)CC2)C1CCCCC1 [Compound 37, (R)-tert-butyl 1-(1-cyclohexylethylcarbamoyl)-3-phenyl-5,6-dihydroimidazo[1,5-a]pyrazine-7(8H)-carboxylate]		−	
C/C=C/c1nc(C(=O)N[C@H](C(=O)NC)C(C)(C)C)c2n1CCN(C)C2 [Compound 243, (S,E)-N-(3,3-dimethyl-1-(methylamino)-1-oxobutan-2-yl)-7-methyl-3-(prop-1-enyl)-5,6,7,8-tetrahydroimidazo[1,5-a]pyrazine-1-carboxamide]		+	
CCN1CCn2c(-c3ccccc3)nc(C(=O)NCC3CCOCC3)c2C1 [Compound 168, 7-ethyl-3-phenyl-N-((tetrahydro-2H-pyran-4-yl)methyl)-5,6,7,8-tetrahydroimidazo[1,5-a]pyrazine-1-carboxamide]		+	
CNC(=O)[C@@H](NC(=O)c1nc(-c2cccc(C(F)(F)F)c2F)n2c1CN(C)CCC2)C(C)(C)C [Compound 364, (S)-N-(3,3-dimethyl-1-(methylamino)-1-oxobutan-2-yl)-3-(2-fluoro-3-(trifluoromethyl)phenyl)-8-methyl-6,7,8,9-tetrahydro-5H-imidazo[1,5-a][1,4]diazepine-1-carboxamide]	> 10000 nM		
CCCNC(=O)N1CCn2c(-c3ccccc3)nc(C(=O)N[C@H](C(=O)NC)C(C)(C)C)c2C1 [Compound 193, (S)-N1-(3,3-dimethyl-1-(methylamino)-1-oxobutan-2-yl)-3-phenyl-N7-propyl-5,6-dihydroimidazo[1,5-a]pyrazine-1,7(8H)-dicarboxamide]	> 10000 nM		
CNC(=O)[C@@H]1CCCN1C(=O)c1nc(-c2ccccc2)n2c1CNCCC2 [Compound 602]	> 10000 nM		
CCS(=O)(=O)N1CCn2c(-c3ccccc3)nc(C(=O)NN3CCCCC3)c2C1 [Compound 115, 7-(ethylsulfonyl)-3-phenyl-N-(piperidin-1-yl)-5,6,7,8-tetrahydroimidazo[1,5-a]pyrazine-1-carboxamide]			EC50 [1]: > 10000 nM
CNC(=O)[C@@H](NC(=O)c1nc(-c2c(F)cccc2OC)n2c1CN(C)CCC2)C(C)(C)C [Compound 365, N-((S)-3,3-dimethyl-1-(methylamino)-1-oxobutan-2-yl)-3-(2-fluoro-6-methoxyphenyl)-8-methyl-6,7,8,9-tetrahydro-5H-imidazo[1,5-a][1,4]diazepine-1-carboxamide]		+	
CNC(=O)[C@@H](NC(=O)c1nc(-c2ccc(Br)cc2F)n2c1CN(C)CCC2)C(C)(C)C [Compound 600, (S)-3-(4-bromo-2-fluorophenyl)-N-(3,3-dimethyl-1-(methylamino)-1-oxobutan-2-yl)-8-methyl-6,7,8,9-tetrahydro-5H-imidazo[1,5-a][1,4]diazepine-1-carboxamide]		+	
CC(C)(CO)CNC(=O)c1nc(-c2ccccc2)n2c1CNCC2 [Compound 29, N-(3-hydroxy-2,2-dimethylpropyl)-3-phenyl-5,6,7,8-tetrahydroimidazo[1,5-a]pyrazine-1-carboxamide]			EC50 [1]: > 10000 nM
COC(=O)N1CCn2c(-c3ccccc3)nc(C(=O)NC3C4(C)CCC(C4)C3(C)C)c2C1 (stereo not drawn) [Compound 178, methyl 3-phenyl-1-(1,3,3-trimethylbicyclo[2.2.1]heptan-2-ylcarbamoyl)-5,6-dihydroimidazo[1,5-a]pyrazine-7(8H)-carboxylate]		+	
CC(C)(C)OC(=O)N1CCn2c(-c3ccccc3)nc(C(=O)Nc3ccccc3)c2C1 [Compound 32, tert-butyl 3-phenyl-1-(phenylcarbamoyl)-5,6-dihydroimidazo[1,5-a]pyrazine-7(8H)-carboxylate]		−	
CNC(=O)[C@H](CC(C)C)NC(=O)c1nc(-c2cc(F)ccc2F)n2c1CN(C)CCC2 [Compound 532, (S)-3-(2,5-difluorophenyl)-8-methyl-N-(4-methyl-1-(methylamino)-1-oxopentan-2-yl)-6,7,8,9-tetrahydro-5H-imidazo[1,5-a][1,4]diazepine-1-carboxamide]		+	
CNC(=O)[C@H](CC(C)C)NC(=O)c1nc(-c2ccc(F)c(Cl)c2)n2c1CN(C)CCC2 [Compound 537, (S)-3-(3-chloro-4-fluorophenyl)-8-methyl-N-(4-methyl-1-(methylamino)-1-oxopentan-2-yl)-6,7,8,9-tetrahydro-5H-imidazo[1,5-a][1,4]diazepine-1-carboxamide]		+	
CNC(=O)[C@@H](NC(=O)c1nc(C=C(C)C)n2c1CN(C)CC2)C(C)(C)C [Compound 257, (S)-N-(3,3-dimethyl-1-(methylamino)-1-oxobutan-2-yl)-7-methyl-3-(2-methylprop-1-enyl)-5,6,7,8-tetrahydroimidazo[1,5-a]pyrazine-1-carboxamide]		+	
CNC(=O)[C@@H](NC(=O)c1nc(-c2ccc(C(F)(F)F)cc2)n2c1CNCC2)C(C)(C)C [Compound 5, (S)-N-(3,3-dimethyl-1-(methylamino)-1-oxobutan-2-yl)-3-(4-(trifluoromethyl)phenyl)-5,6,7,8-tetrahydroimidazo[1,5-a]pyrazine-1-carboxamide]	> 10000 nM		
CNC(=O)[C@H](CC(C)C)NC(=O)c1nc(-c2ccc(Cl)cc2F)n2c1CN(C)CCC2 [Compound 529, (S)-3-(4-chloro-2-fluorophenyl)-8-methyl-N-(4-methyl-1-(methylamino)-1-oxopentan-2-yl)-6,7,8,9-tetrahydro-5H-imidazo[1,5-a][1,4]diazepine-1-carboxamide]		+	
CNC(=O)[C@@H](NC(=O)c1nc(-c2ccccc2)n2c1CN(CC(C)C)CC2)C(C)(C)C [Compound 148, (S)-N-(3,3-dimethyl-1-(methylamino)-1-oxobutan-2-yl)-7-isobutyl-3-phenyl-5,6,7,8-tetrahydroimidazo[1,5-a]pyrazine-1-carboxamide]		−	
CNC(=O)[C@@H](NC(=O)c1nc(-c2cc(C(F)(F)F)ccc2F)n2c1CN(C)CCC2)C(C)(C)C [Compound 363, (S)-N-(3,3-dimethyl-1-(methylamino)-1-oxobutan-2-yl)-3-(2-fluoro-5-(trifluoromethyl)phenyl)-8-methyl-6,7,8,9-tetrahydro-5H-imidazo[1,5-a][1,4]diazepine-1-carboxamide]		+	
CNC(=O)[C@@H](NC(=O)c1nc(CC(C)C)n2c1CN(C)CCC2)C(C)(C)C [Compound 486, (S)-N-(3,3-dimethyl-1-(methylamino)-1-oxobutan-2-yl)-3-isobutyl-8-methyl-6,7,8,9-tetrahydro-5H-imidazo[1,5-a][1,4]diazepine-1-carboxamide]		+	
CNC(=O)[C@@H](NC(=O)c1nc(-c2ccc(-c3ccccc3)cc2)n2c1CN(C)CC2)C(C)(C)C [Compound 265, (S)-3-(biphenyl-4-yl)-N-(3,3-dimethyl-1-(methylamino)-1-oxobutan-2-yl)-7-methyl-5,6,7,8-tetrahydroimidazo[1,5-a]pyrazine-1-carboxamide]	> 10000 nM		
CNC(=O)[C@@H](NC(=O)c1nc(-c2ccc(OC)c(C)c2)n2c1CN(C)CCC2)C(C)(C)C [Compound 350, (S)-N-(3,3-dimethyl-1-(methylamino)-1-oxobutan-2-yl)-3-(4-methoxy-3-methylphenyl)-8-methyl-6,7,8,9-tetrahydro-5H-imidazo[1,5-a][1,4]diazepine-1-carboxamide]	> 10000 nM		
